From a compilation of properties of binary mixtures (doi:10.1016/0040-6031(70)80012-0) come the findings set out here.

The densities may have been worked out from excess volumes.

A word on the mass density: it is mass per unit of volume.

A short description of the data set: xn = mol fraction of the nth substance listed. As to conditions: 101 kPa.

For `CCCCC[N+]1(C)CCCC1.[Br-]` + O, the mass density was 1034.5 kg/m3 (333.15 K, x2 = 0.9687) and 1169.5 kg/m3 (338.15 K, x2 = 0.5903).
Take `CCCC[N+]1(C)CCCC1.[Br-]` + O: the mass density runs as follows: (308.15 K, x2 = 0.72) 1201.5 kg/m3; (308.15 K, x2 = 0.9439) 1087.5 kg/m3; (313.15 K, x2 = 0.8717) 1145.5 kg/m3; (338.15 K, x2 = 0.72) 1180.5 kg/m3; (343.15 K, x2 = 0.8717) 1123.5 kg/m3.
As to `CCC[N+]1(C)CCCC1.[Br-]` + O, the mass density runs as follows: (303.15 K, x2 = 0.7618) 1222.5 kg/m3; (303.15 K, x2 = 0.8315) 1193.5 kg/m3; (323.15 K, x2 = 0.8315) 1179.5 kg/m3; (343.15 K, x2 = 0.7862) 1185.5 kg/m3.
